About 50,000 (12%) of roughly 420,000 compounds were called active. Inconclusive results, whose numbers are uncertain, are shown with a selection of clear calls. Calls come from the whole dose curve; as a rule, active = well fitted inhibition curve with a large enough effect; inconclusive = small, poorly fitted or top-dose-only effect; inactive = flat fitted curve, though single readings scatter. No potency is given beside an inconclusive call; the fits are too rough.
Assay: qHTS for Inhibitors of human tyrosyl-DNA phosphodiesterase 1 (TDP1): qHTS in cells in presence of CPT; note: nearly all actives have a fitted effect of over 55% in size
Conditions: chicken DT40 Tdp1-/-;hTDP1 cells + 20 nM CPT, ATP luminescence, 48 h; activity change, negative = growth inhibition: at 46.2 µM (top of the series)
How it was run: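 Chicken DT40 Tdp1-/- cells stably complemented with human TDP1 were seeded at 400 cells/well in medium containing 20 nM camptothecin, exposed to pin-transferred compounds, and grown at 37 °C for at least 48 hr. Viability was read as ATP luminescence.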
% is set by controls: 0 for no effect and ±100 for the full control effect; potency is the fitted concentration of half-maximal effect; tags give direction and shape of the fitted curve.

Row | Compound | Potency | activity change, negative = growth inhibition
1 | CCOC(=O)C1(CCCc2ccccc2)CCN(Cc2cnc(C)s2)CC1 | active: 20.6 µM | –
2 | COc1ccc(/C=C2\SC(=S)N(CCCC(=O)NNC(=O)c3ccccc3O)C2=O)cc1 | inconclusive [inhibitor, single point] | –
3 | O=C(c1cccc(Oc2ccccc2)c1)N1CCN(c2ccccn2)CC1 | – | inactive: 3.34%
4 | CCOc1ccc(C(c2c(O)cc(C)n(Cc3ccco3)c2=O)N2CCN(c3ccccc3)CC2)cc1 (configuration not stated) | inconclusive [inhibitor, partial curve] | –
5 | COc1ccc(NC(=O)CSC2=Nc3ccccc3C3=NC(CC(=O)NCc4ccc5c(c4)OCO5)C(=O)N23)cc1 (configuration not stated) | – | inactive: -23.2%
6 | Cc1cnc(NC(=O)C2CCC(C(C)(C)C)CC2)s1 (configuration not stated) | inconclusive [inhibitor, single point] | –
7 | CC(=O)OC1CCC2(C)C(=CCC3C4CC(=O)N(O)C(=O)C4(C)CCC32)C1 (configuration not stated) | inconclusive [inhibitor, single point] | –
8 | C=C(C)c1cccc(C(C)(C)NC(=O)Nc2cc(C)ccc2OC)c1 | inconclusive [inhibitor, partial curve, poor fit] | –
9 | O=C(Nc1ccc(Cl)c(Cl)c1)c1ccc(Cn2c(=O)[nH]c3ccsc3c2=O)cc1 | inconclusive [inhibitor, single point] | –
10 | Cn1c(CN2CCCCC2)nc2cc(NC(=O)c3ccccc3)ccc21 | inconclusive [inhibitor, single point] | –
11 | CC1(C(=O)NS(=O)(=O)c2cccc(Cl)c2)CCN1C(=O)CCc1cccs1 (configuration not stated) | – | inactive: -5.41%
12 | CN1CCN(C(=O)/C=C/c2ccc(Cl)c(Cl)c2)CC1 | – | inactive: -28.1%
13 | COc1ccc(-c2cnc3cccnn23)cn1 | – | inactive: -9.89%
14 | CSc1nc2sc3c(c2c(=O)[nH]1)CC(C)(C)OC3 | – | inconclusive: -32.5% [inhibitor]
15 | COc1ccc(CC(=O)NNS(=O)(=O)c2ccc(F)cc2)cc1 | inconclusive [inhibitor, single point] | –
16 | CCC(=O)N1CCc2cc(Br)c(S(=O)(=O)NCCN3CCCCC3CC)cc21 (configuration not stated) | – | inactive: -4.35%
17 | CCCc1cc(=O)n2[nH]c(NCc3c(Cl)cccc3Cl)nc2n1 | inconclusive [inhibitor, single point] | –
18 | Cc1cccc(C)c1NC(=S)NC(=O)CCc1ccccc1 | – | inactive: 4.34%
19 | COc1ccccc1C(=O)NCCC(=O)Nc1ccc(S(=O)(=O)N2CCCC(C)C2)cc1 (configuration not stated) | inconclusive [inhibitor, single point] | –
20 | CSc1ccc(S(=O)(=O)Nc2ccc3c(c2)NC(=O)CC3)cc1 | inconclusive [inhibitor, single point] | –
21 | COc1ccc(C2C(C#N)=C(N)Oc3c2ccc2cccnc32)cc1OC (configuration not stated) | active: 3.26 µM | –
22 | O=C(CN1CCN(S(=O)(=O)c2ccc(F)c(Cl)c2)CC1)N1CCc2ccccc21 | inconclusive [inhibitor, single point] | –
23 | COc1ccc(N2C(=O)N(Cc3ccc(C)cc3)c3ccccc3S2(=O)=O)cc1 | inconclusive [inhibitor, single point] | –
24 | Cc1nc2ccc(S(=O)(=O)Nc3cc(-c4nc5cccnc5s4)ccc3C)cc2s1 | inconclusive [inhibitor, single point] | –

Row | Compound | Potency | activity change, negative = growth inhibition
25 | COc1ccc(CN2CCN(C(=O)CCC(=O)Nc3nnc(C4CCCCC4)s3)CC2)cc1F | active: 16.4 µM | –
26 | O=C(Nc1ccc(F)cc1F)N1CCN(c2ccc(Cl)c(Cl)c2)CC1 | active: 6.51 µM | –
27 | COCCNC(=O)CSc1nc(-c2ccc(OC)c(OC)c2)cc(C(F)(F)F)n1 | – | inactive: -0.197%
28 | CCOC(=O)CS(=O)(=O)c1nc(-c2ccc(F)cc2)cc(C(F)(F)F)n1 | active: 0.517 µM | –
29 | CCC(C)(C(=O)Nc1ccc(OC)cc1)N(C)C(=O)Cn1nnnc1N (configuration not stated) | – | inactive: -26.2%
30 | COc1ccc(Nc2ncc3c(n2)CC(c2ccc(OC)cc2)CC3=O)cc1 (configuration not stated) | inconclusive [inhibitor, partial curve] | –
31 | COc1cc(/C=C/[N+](=O)[O-])ccc1OCc1cccc(C(=O)O)c1 | active: 16.4 µM | –
32 | Cc1ccccc1C(=O)N1CCC(C(=O)NCc2ccc(Cl)cc2)CC1 | inconclusive [inhibitor, single point] | –
33 | Cn1c(N)c(C#N)c2c(c1=S)COC(C)(C)C2 | – | inactive: -4.63%
34 | N#C/C(=C(/O)CCl)c1nc2c(s1)CCc1ccccc1-2 | active: 11.6 µM | –
35 | C[C@@H]1CN([C@@H](C)CO)C(=O)c2cc(Br)cnc2O[C@H]1CN(C)C(=O)Cc1ccccn1 | – | inactive: 0.504%
36 | CNc1snc(C)c1C(=O)OCC(=O)N(C)Cc1ccccc1 | active: 14.6 µM | –
37 | CCOc1ccccc1NC(=O)c1nn(C)c2c1CSc1ccccc1-2 | inconclusive [inhibitor, single point] | –
38 | CNC(=O)Nc1ccc(C2SCCS2)cc1 | – | inactive: 0.12%
39 | COc1ccc(-n2nc(C(=O)Nc3cc(OC)c(OC)c(OC)c3)c3ccccc3c2=O)c(OC)c1 | inconclusive [inhibitor, single point] | –
40 | C/C(Cc1ccccc1)=N\NC(=O)CNC(=O)c1ccccc1Cl | – | inactive: -4.25%
41 | Cc1cc(OCC(=O)N(C)c2c(N)n(Cc3ccccc3)c(=O)[nH]c2=O)c(C(C)C)cc1Cl | inconclusive [inhibitor, single point] | –
42 | CCc1nc2ccc(C(=O)NCCNC(C)=O)cn2c1N(CC)Cc1cccc(Br)c1 | inconclusive [inhibitor, single point] | –
43 | CN(C)CCNC(=O)c1ccc(Cn2c(=O)c3cccn3c3cccnc32)cc1 | inconclusive [inhibitor, single point] | –
44 | CC1Cc2ccccc2N1S(=O)(=O)c1cccc(C(=O)OCC(=O)N2CCOCC2)c1 (configuration not stated) | – | inactive: -10.9%
45 | O=C(CSc1ccc(Br)cc1)NCC(c1ccco1)N1CCCCC1 (configuration not stated) | inconclusive [inhibitor, single point] | –
46 | O=C(CSC1=NCCN1)C1COc2ccccc2O1 (configuration not stated) | active: 18.4 µM | –
47 | COc1ccccc1CNc1nc(-c2cccc(NS(C)(=O)=O)c2)nc2ccccc12 | inconclusive [inhibitor, single point] | –

Reference: PubChem BioAssay AID686979 (National Center for Advancing Translational Sciences (NCATS), 2013)
